Source: patent publication US11938152B2, “High-dose antioxidants in cancer treatment” (priority 2020, dated 2024)

Assays:
human glioma cells = conditions: in culture; cited from earlier work
[1] = tested on: non-transformed astrocytes; conditions: cited from earlier work
breast cancer patients = conditions: cited from earlier work
[2] = tested on: human breast cancer cells; conditions: 0.9 μM to 9.0 μM, in culture; cited from earlier work
hepatoma cells = conditions: cited from earlier work; for levels of phosphorylated H2AX (yH2AX): individual treatment, in culture
[3] = tested on: patients with head and neck cancer; conditions: without interfering with efficacy of radiation therapy; cited from earlier work
murine NB cells = conditions: high doses, in culture; cited from earlier work
[4] = tested on: neuroblastoma cells and breast cancer cells; conditions: high doses, in culture and in mice with transplanted breast cancer; cited from earlier work
gastric carcinoma = conditions: cell culture and xenograft models; cited from earlier work
various cancer cells = conditions: in culture; cited from earlier work
[5] = tested on: chronic myelogenous leukemia cells; conditions: co-treatment, in culture; cited from earlier work
[6] = tested on: radioresistant cervical cancer cells; conditions: pre-treatment; cited from earlier work
human colon cancer cells = conditions: in culture; cited from earlier work
[7] = tested on: normal epithelial cell line (IEC-6); conditions: cited from earlier work
[8] = tested on: tumor growth and metastasis; conditions: in vivo; cited from earlier work
HCT 15 cell line = conditions: cell line expressing reduced level of COX-2; cited from earlier work
[9] = tested on: human colon cancer cells over-expressing Cox-2 enzyme (HT29 cells); conditions: cited from earlier work
breast cancer cells = conditions: in culture; cited from earlier work
[10] = tested on: estrogen receptor (ER)-positive (MCF7) and ER-negative MDA-MB-231 breast cancer cells; conditions: in culture; cited from earlier work
[11] = tested on: normal prostate epithelial cells; conditions: 2.5-10 μM; cited from earlier work
[12] = tested on: NK/T cell lymphoma (NKTCL); conditions: cited from earlier work
ovarian cancer cells = conditions: in culture; cited from earlier work
human leiomyoma cells = conditions: in culture; cited from earlier work
[13] = tested on: androgen-sensitive (22RV1) and androgen insensitive prostate cancer cells; conditions: cited from earlier work
[14] = tested on: breast cancer cells in culture (MCF-7); conditions: 10 μM before irradiation, cited from earlier work
[15] = tested on: B-16 murine melanoma cells; conditions: high doses, in culture; cited from earlier work
human normal fibroblasts [16] = test: Chromosomal damage in human normal fibroblasts; assay type: cell-based
[17] = tested on: human cervical cancer cells and ovarian cancer cells; test: Chromosomal damage in human cancer cells; assay type: cell-based
[18] = tested on: human cervical cancer cells (HeLa cells); test: Adriamycin toxicity on HeLa cells; assay type: cell-based; conditions: Table 5 in FIG. 5
murine melanoma cells = test: Differentiation and growth of murine melanoma cells in culture; assay type: cell-based
Excerpt: Several studies using other cancer cell lines in culture and in animal models confirmed this observation.

human normal fibroblasts [19] = test: Adriamycin toxicity on human normal fibroblasts; assay type: cell-based; conditions: Table 5 in FIG. 5
neuroblastoma cells = test: Apoptosis and hyperthermia in neuroblastoma cells; assay type: cell-based; conditions: 40° C., 41° C., and 43° C., in culture (Table 6 in FIG. 6)
Protocol: Hyperthermia at 40° 43° C. alone or in combination with radiation therapy is primarily used in the management of local tumor control after all standard therapeutic modalities have failed. Variable improvements in transient local tumor control have been observed.

[20] = tested on: H-ras transformed human breast epithelial cells; conditions: cited from earlier work
[21] = tested on: breast cancer cells in culture or mice carrying breast cancer cells; conditions: cited from earlier work
[22] = tested on: murine neuroblastoma (NB) cells; test: Killing of murine neuroblastoma cells in culture; assay type: cell-based
normal cells = conditions: high doses of ascorbate; cited from earlier work
[23] = tested on: tumorigenic parotid acinar cells (2HP1G); test: Growth of tumorigenic parotid acinar cells in culture; assay type: cell-based
[24] = tested on: human colorectal cancer (CRC cell line) carrying Kras mutation or Braf mutation; conditions: cited from earlier work
cancer cells = conditions: high doses; cited from earlier work
pancreatic cancer cells = conditions: high doses of ascorbate; cited from earlier work
[25] = tested on: locally advanced, borderline resectable pancreatic cancer; conditions: intravenous high doses as ascorbic acid, with gemcitabine and radiation therapy; cited from earlier work
murine normal fibroblast = test: Growth of murine normal fibroblast; assay type: cell-based; conditions: high doses
[26] = tested on: patients with differentiated thyroid cancer; conditions: daily dose of 1500 mg, radioiodine therapy; cited from earlier work

COC1=C(OC)C(=O)C(C/C=C(\C)CC/C=C(\C)CC/C=C(\C)CC/C=C(\C)CC/C=C(\C)CC/C=C(\C)CC/C=C(\C)CC/C=C(\C)CC/C=C(\C)CCC=C(C)C)=C(C)C1=O [coenzyme Q10, Coenzyme Q10]
cytotoxicity of TMZ (temozolomide) (human glioma cells): enhanced the cytotoxicity of TMZ | sensitivity to ionizing radiation (DNA damage and apoptosis) (human glioma cells): increased the sensitivity to ionizing radiation | effect on non-transformed astrocytes [1]: without affecting non-transformed astrocytes | survival of breast cancer patients (breast cancer patients; daily supplementation 390 mg or more, with standard cancer therapy): may increase the survival | fatigue and quality of life (breast cancer patients; supplementation with 300 mg): did not improve the extent of fatigue or the quality of life | cytotoxicity of doxorubicin [2]: did not interfere with the cytotoxicity | growth [2]: did not inhibit the growth

N.N.[Cl][Pt][Cl] [cisplatin]
levels of phosphorylated H2AX (yH2AX) (hepatoma cells): enhanced the levels

CC1=C(/C=C/C(C)=C/C=C/C(C)=C/C=C/C=C(C)/C=C/C=C(C)/C=C/C2=C(C)CCCC2(C)C)C(C)(C)CCC1 [Beta-carotene]
radiation-induced oral mucositis [3]: reduced radiation-induced oral mucositis | differentiation (murine NB cells): induced differentiation

O=C(O)CCCCC1CCSS1 (stereo not drawn) [Alpha-lipoic acid]
glucose uptake and growth [4]: reduced glucose uptake and reduced the growth

COc1cc(/C=C/C(=O)CC(=O)/C=C/c2ccc(O)c(OC)c2)ccc1O [curcumin, Curcumin]
growth (gastric carcinoma): inhibited growth | growth and apoptosis (various cancer cells): inhibits the growth and induces apoptosis | apoptosis induced by arsenic oxide or lonidamine [5]: increased the levels of apoptosis | apoptosis induced by cisplatin [5]: no similar effect | ionizing radiation-induced apoptosis [6]: enhanced ionizing radiation-induced apoptosis | proliferation (human colon cancer cells): reduced the proliferation

O=c1c(O)c(-c2ccc(O)c(O)c2)oc2cc(O)cc(O)c12 [Quercetin]
effect on normal epithelial cells [7]: minimal effect | tumor growth and metastasis [8]: inhibited tumor growth and metastasis | effectiveness relative to HT29 cells (HCT 15 cell line): less effective | apoptosis and growth [9]: induced apoptosis and inhibited the growth | migration (breast cancer cells): prevented the migration | uptake of glucose (breast cancer cells): blocked the uptake of glucose | uptake of glucose and growth [10]: inhibited the uptake of glucose and reduced the growth

Oc1ccc(C=Cc2cc(O)cc(O)c2)cc1 [Resveratrol]
growth [11]: not of normal prostate epithelial cells | cell proliferation ([12]; dose-dependent): reduced cell proliferation | apoptosis ([12]; through mitochondrial pathway): induced apoptosis | apoptosis (ovarian cancer cells): induced apoptosis | glutamine metabolism (hepatoma cells): inhibited glutamine metabolism | levels of phosphorylated H2AX (yH2AX) (hepatoma cells): enhanced the levels | growth (human leiomyoma cells): reduced the growth | growth ([13]; 2.5-10 μM): inhibited the growth | ionizing radiation-induced apoptosis [13]: enhanced ionizing radiation-induced apoptosis | activity of caspase 8 ([14]; in 24 hours): increased activity of caspase 8 | apoptosis pathway [14]: increased apoptosis pathway

CC1=C(/C=C/C(C)=C/C=C/C(C)=C/CO)C(C)(C)CCC1 [retinol]
differentiation [15]: induced differentiation

O=C(O[C@@H]1Cc2c(O)cc(O)cc2O[C@@H]1c1cc(O)c(O)c(O)c1)c1cc(O)c(O)c(O)c1 [EGCG, epigallocatechin gallate]
uptake of glucose and growth [10]: inhibited the uptake of glucose and reduced the growth

Cc1c(C)c2c(c(C)c1OC(=O)CCC(=O)O)CC[C@@](C)(CCC[C@H](C)CCC[C@H](C)CCCC(C)C)O2 [vitamin E succinate, D-alpha tocopheryl succinate]
radiation-induced chromosomal damage in normal cells (human normal fibroblasts [16]; FIG. 9): protected normal cells against such damage | chromosomal damage (human normal fibroblasts [16]; in culture): not in human normal fibroblasts | radiation-induced chromosomal damage in cancer cells ([17]; FIG. 9): enhanced the levels of radiation-induced chromosomal damage | chromosomal damage ([17]; in culture): induced chromosomal damage | toxicity of Adriamycin [18]: enhanced the toxicity | expression of oncogenes c-myc and H-ras (murine melanoma cells; growth-inhibitory dose): reduced the expression | differentiation and growth (murine melanoma cells; high doses, in culture (FIG. 7)): induced differentiation and growth inhibition | toxicity of Adriamycin (human normal fibroblasts [19]): not on human normal fibroblasts | apoptosis alone and with hyperthermia (neuroblastoma cells): induced apoptosis and enhanced apoptotic effects of hyperthermia

C=C1CC[C@H](O)C/C1=C/C=C1\CCC[C@]2(C)[C@@H]([C@H](C)CCCC(C)C)CC[C@@H]12 [Vitamin D3, cholecalciferol]
glutamine uptake and growth [20]: inhibited glutamine uptake and reduced their growth | level of glutamine transporter protein (SLC1A5) [20]: reducing the level

Omega-3-fatty acids
glucose and glutamine metabolism and growth [21]: inhibited glucose and glutamine metabolism, and reduced their growth

N[C@@H](CCC(=O)N[C@@H](CS)C(=O)NCC(=O)O)C(=O)O [Glutathione]
killing of NB cells compared with vitamin C [22]: more effective than vitamin C in killing NB cells

O=C1O[C@H]([C@@H](O)CO)C(O)=C1O [Vitamin C, ascorbic acid]
radiation-induced damage to normal cells (normal cells): inhibited radiation-induced damage | growth of tumorigenic parotid acinar cells [23]: inhibited the growth | cell killing [24]: killed selectively | growth of cancer cells and normal cells in humans (cancer cells): inhibits the growth of cancer cells without affecting the growth of normal cells | effect of radiation on pancreatic cancer cells (pancreatic cancer cells): sensitize the effect of radiation | cells killed ([22]; high concentration): 100% | overall survival time [25]: increased overall survival time | growth of murine normal fibroblast (murine normal fibroblast): only slightly reduced | oxidative stress [26]: reduced oxidative stress
